# Out of some 360,000 compounds screened, about 520 (0.14%) were called active. Inconclusive means that the source gave no clear call. Such entries were picked first, then a sample of the others. The call rests on the fitted dose curve; in most records, active means well fitted inhibition curve with a large enough effect; inconclusive means small, poorly fitted or top-dose-only effect; inactive means no such curve, though single readings can be large or run the other way. No potency is given beside an inconclusive call; the fits are too rough.
# Biological target: Rap guanine nucleotide exchange factor 3 (Homo sapiens) (UniProt O95398)
# Assay: qHTS for Antagonist of cAMP-regulated guanine nucleotide exchange factor 3 (EPAC1): primary screen; further: nearly all actives have a fitted effect of over 50% in size;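 on activity change, negative = inhibition: plate controls were vehicle for no effect and positive control for full effect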
# Conditions: EPAC1 GEF assay, Rap1b-BODIPY-GDP exchange fluorescence; activity change, negative = inhibition: at 115 µM (top of the series)
# Potency means the concentration at half of the fitted maximal effect; tags describe the fitted curve by direction and shape.
# Sequence of UniProt O95398 (O95398 whole entry, looked up): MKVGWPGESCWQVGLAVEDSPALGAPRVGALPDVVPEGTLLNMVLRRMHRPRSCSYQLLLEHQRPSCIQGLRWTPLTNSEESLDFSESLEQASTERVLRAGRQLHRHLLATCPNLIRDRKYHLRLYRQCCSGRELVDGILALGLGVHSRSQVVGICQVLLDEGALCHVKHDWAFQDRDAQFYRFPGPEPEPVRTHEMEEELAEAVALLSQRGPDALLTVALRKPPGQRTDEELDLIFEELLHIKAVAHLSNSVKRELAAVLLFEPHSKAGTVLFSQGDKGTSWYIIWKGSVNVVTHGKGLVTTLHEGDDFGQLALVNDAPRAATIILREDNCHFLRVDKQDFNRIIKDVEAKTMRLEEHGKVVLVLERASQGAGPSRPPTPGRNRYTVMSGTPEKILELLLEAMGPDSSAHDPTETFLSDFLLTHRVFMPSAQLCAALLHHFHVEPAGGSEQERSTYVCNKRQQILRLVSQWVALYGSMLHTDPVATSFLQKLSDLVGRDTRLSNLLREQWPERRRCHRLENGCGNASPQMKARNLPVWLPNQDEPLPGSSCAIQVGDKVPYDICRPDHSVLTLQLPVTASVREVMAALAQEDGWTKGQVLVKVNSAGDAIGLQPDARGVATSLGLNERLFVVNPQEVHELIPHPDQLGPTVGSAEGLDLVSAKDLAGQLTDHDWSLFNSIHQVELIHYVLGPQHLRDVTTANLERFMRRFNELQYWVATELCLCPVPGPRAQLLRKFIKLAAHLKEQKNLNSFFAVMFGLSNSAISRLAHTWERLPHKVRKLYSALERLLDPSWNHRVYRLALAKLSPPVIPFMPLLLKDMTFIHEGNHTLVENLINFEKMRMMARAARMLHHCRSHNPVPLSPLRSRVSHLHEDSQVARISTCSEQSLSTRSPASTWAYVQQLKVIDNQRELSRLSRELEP
Structure (SMILES),"activity change, negative = inhibition",Potency
O=C(Nc1cc(S(=O)(=O)N2CCOCC2)ccc1N1CCCC1)c1ccc(Cl)cc1,inactive: -21.6%,–
FC(F)(F)c1cc(-c2ccco2)nc(NCc2ccco2)n1,–,"inconclusive [inhibitor, single point]"
Cn1c(SCC(=O)c2ccc3c(c2)Cc2ccccc2-3)nnc1-c1ccccc1,–,"inconclusive [inhibitor, partial curve]"
COc1ccc(-n2c(=O)c(CCC(=O)N3CCN(c4cccc(OC)c4)CC3)nc3ccccc32)cc1,inactive: -14.6%,–
O=C1c2ccccc2C(Nc2ccc(Cl)cc2)N1CCN1CCOCC1 (stereo not given),–,"inconclusive [inhibitor, single point]"
CCOC(=O)CCC(=O)NNC(=O)c1ccc(NC(=O)c2ccccc2)cc1,–,"inconclusive [inhibitor, partial curve]"
Cc1ccc(SCCC(=O)Nc2ccccc2C(=O)NC(C)C)cc1,–,"inconclusive [inhibitor, single point]"
COC(=O)C(C)N(C(=O)c1ccc(Cl)cc1)c1c(C)cccc1C (stereo not given),–,"inconclusive [inhibitor, partial curve]"
Cc1cc(=O)n(C2CCS(=O)(=O)C2)[nH]1 (stereo not given),–,"inconclusive [inhibitor, single point]"
COc1ccc(/C(O)=C/C(=O)C(=O)NNC(=O)C(O)(c2ccccc2)c2ccccc2)cc1,–,active: 39.8 µM
O=C(N/N=C/c1c(O)n(Cc2ccccc2)c(=O)c2ccccc12)c1cccnc1,–,"inconclusive [inhibitor, full curve, poor fit]"
Cc1ccc(NC(=O)C2CCCC2)cc1Cl,inactive: -23.8%,–
Cc1ccc(SCc2ccc(C(=O)Nc3ccccc3C(=O)NC(C)C)cc2)cc1,–,"inconclusive [inhibitor, single point]"
O=S(=O)(Nc1cccc2c1CCCC2)c1ccc(Cl)cc1,–,"inconclusive [inhibitor, partial curve]"
O[C@H]1C[C@H](c2ccc(Cl)cc2)N(Cc2cccs2)C[C@@H]1n1cc(-c2ccc(F)cc2)nn1,inactive: 1.48%,–
COc1cccc2c1C(=O)c1c(O)c3c(c(O)c1C2=O)C[C@@](O)(C(=O)CO)C[C@@H]3O[C@H]1C[C@H](N)[C@@H](O)[C@H](C)O1,inactive: 23.1%,–
CCSc1nnc(-c2ccncc2)n1Cc1ccccc1,–,"inconclusive [inhibitor, full curve, poor fit]"
COc1ccc(C(=O)NCc2nnc(SCC(=O)N3CCCC3)o2)cc1,–,"inconclusive [inhibitor, partial curve, poor fit]"
CN(CC(=O)Nc1n[nH]c(=S)s1)S(=O)(=O)c1cccc2cccnc12,–,"inconclusive [inhibitor, single point]"
Cc1ccc(-n2cccc2/C=C2/NC(=O)N(CC(=O)Nc3cccc(C)c3)C2=O)cc1,–,"inconclusive [inhibitor, single point]"
Oc1ccc(/C=N/Nc2nc(-c3ccc(Cl)cc3)cc(C(F)(F)F)n2)cc1,–,"inconclusive [inhibitor, full curve, poor fit]"
CC(C)CC(=O)/C(=C/c1ccc(N(C)C)cc1)n1cncn1,inactive: 3.49%,–

Structure (SMILES),"activity change, negative = inhibition",Potency
O=C(CNc1cc(S(=O)(=O)N2CCCC2)ccc1OCC(F)(F)F)Nc1cccc(C(F)(F)F)c1,–,"inconclusive [inhibitor, full curve]"
O=C(CCCc1ccccc1)NC12CC3CC(CC(C3)C1)C2,–,"inconclusive [inhibitor, full curve, poor fit]"
Cc1ccc(-n2c(SCC(=O)O)nc3sc4c(c3c2=O)C(C)CCC4)cc1 (stereo not given),–,"inconclusive [inhibitor, full curve, poor fit]"
COc1ccc2cc(-c3ccsc3)ncc2c1,–,"inconclusive [inhibitor, full curve, poor fit]"
Cc1oc2nc(SCCCC(=O)NCCO)nc(N)c2c1C,–,"inconclusive [inhibitor, single point]"
Cc1ccc(NC(=O)CN(C)C(=O)c2cn(Cc3ccccc3)nc2-c2cccnc2)cc1,–,"inconclusive [inhibitor, single point]"
CC(C(=O)Nc1cc([N+](=O)[O-])ccc1Cl)N1CCN(c2ccc(O)cc2)CC1 (stereo not given),inactive: -12.7%,–
COC(=O)c1ccccc1NC(=O)c1ccccc1N(C)S(=O)(=O)c1ccccc1,–,"inconclusive [inhibitor, single point]"
Cc1ccc(C(=O)C2=C(O)C(=O)N(Cc3cccnc3)C2c2cccc(Oc3ccccc3)c2)o1 (stereo not given),–,"inconclusive [inhibitor, partial curve]"
O=C(O)c1cccc(S(=O)(=O)Nc2ccc3oc(=O)sc3c2)c1,inactive: -24.2%,–
CC(=O)c1c(Cl)nc2cccc3c2c1-c1ccccc1C3=O,inactive: 17.2%,–
CCCOc1ccc(C(=O)CCNc2cccc(Cl)c2)cc1,–,"inconclusive [inhibitor, single point]"
CC(C)C[C@@H](CN1CCC[C@@H]1CN1C(=S)NC[C@@H]1Cc1ccc(O)cc1)N1C[C@H](Cc2ccc(O)cc2)N(CCc2ccccc2)C1=S,–,"inconclusive [inhibitor, partial curve, poor fit]"
CCOC(=O)C1=C(CSc2nc3ccccc3s2)NC(=O)NC1c1ccc(OC)cc1 (stereo not given),–,"inconclusive [inhibitor, single point]"
CCCCNc1c(-c2ccc(OC)c(Sc3ccc(OC)cc3)c2)nc2cnccn12,inconclusive: -19.5% [inhibitor],–
Cc1cccc(C(=O)Nc2ccc3c(c2)ncn3C)c1,–,"inconclusive [inhibitor, partial curve]"
O=C1c2ccccc2S(=O)(=O)c2cc(C(=O)N3CCC(O)CC3)ccc21,inactive: 3.14%,–
COc1ccc(C2NCCc3c2[nH]c2ccccc32)cc1CSc1nc2ccccc2s1 (stereo not given),–,"inconclusive [inhibitor, partial curve, poor fit]"
O=C(Nc1ccc2c(c1)OCO2)c1cc(C2CCCCN2C(=O)CCCc2ccccc2)on1 (stereo not given),inactive: -12.3%,–
CCOc1ccc(/C=C(\C#N)C(=O)c2c(C)[nH]c3ccccc23)cc1OC,–,"inconclusive [inhibitor, partial curve]"
CCOC(=O)c1ccccc1NS(=O)(=O)c1ccc(OC)cc1,–,"inconclusive [inhibitor, single point]"
Cn1c(=O)c(-c2cc(=O)[nH][nH]2)c(O)c2ccccc21,–,"inconclusive [inhibitor, full curve]"

Structure (SMILES),"activity change, negative = inhibition",Potency
O=C(CN1C(=O)NC2(CCCCC2)C1=O)NCc1cccs1,–,"inconclusive [inhibitor, partial curve, poor fit]"
N#C/C(=C\c1ccccc1OCc1ccc(C(=O)O)cc1)C(=O)Nc1ccc(O)cc1,–,"inconclusive [inhibitor, single point]"
COc1cccc(/C(O)=C/C(=O)C(=O)Nc2ccc(S(=O)(=O)NC(C)=O)cc2)c1,–,"inconclusive [inhibitor, partial curve]"
COc1ccc(NC(=O)CN(C)C(=O)c2cc3c(s2)CCC3)cc1,–,"inconclusive [inhibitor, partial curve]"
NC(=O)CC(NC(=O)c1ccccc1)c1ccc(NCCc2cccc(F)c2)c([N+](=O)[O-])c1 (stereo not given),–,"inconclusive [inhibitor, partial curve]"
C=C1CCN(c2ccc(C(=O)NCc3ccc(C)cc3)cc2[N+](=O)[O-])CC1,–,"inconclusive [inhibitor, full curve, poor fit]"
O=C(NC1CC1)c1ccc(NC(=O)C2CCC2)cc1,–,"inconclusive [inhibitor, single point]"
CCc1ccc(NC2=CC(=O)C(=O)c3ccccc32)cc1,inactive: -22.9%,–
CCNc1nc(NCC)n2c(SCC(=O)Nc3ccc(CC)cc3)nnc2n1,inactive: -2.56%,–
Cc1c(N/N=C(\C#N)C(=O)c2ccccc2)c(=O)n(-c2ccccc2)n1C,inactive: 0.0331%,–
O=C(NC1CCCCCC1)c1ccc(Cl)c(S(=O)(=O)N2CCOCC2)c1,–,"inconclusive [inhibitor, single point]"
COc1ccc(NC(=O)c2cc(C3CCCCN3C(=O)c3cc(OC)c(C)c(OC)c3)on2)c(C)c1 (stereo not given),–,"inconclusive [inhibitor, partial curve, poor fit]"
O=C(N/N=C\c1ccc(Cl)s1)C1COc2ccccc2O1 (stereo not given),–,"inconclusive [inhibitor, single point]"
COc1ccccc1C(=O)NC(=S)Nc1cccc2cc(O)ccc12,–,"inconclusive [inhibitor, partial curve, poor fit]"
c1ccc(-n2nnnc2NC2CCCCC2)cc1,–,"inconclusive [inhibitor, partial curve]"
CC(=O)N1c2ccc(S(=O)(=O)N(C)Cc3ccco3)cc2CC1C (stereo not given),–,"inconclusive [inhibitor, full curve, poor fit]"
O=C(Nc1ccc(Cl)cc1)N1CC=CCC1,inactive: -8.57%,–
CCc1ccc(OCC(=O)NC2CCCCC2)c(Br)c1,–,"inconclusive [inhibitor, single point]"
C/C(=N/NS(=O)(=O)c1ccc(Cl)cc1)c1cccc(O)c1,inactive: 1.66%,–
O=C(NCC(O)c1nc2ccccc2[nH]1)c1cc2ccccc2[nH]1 (stereo not given),inactive: -1.08%,–
COc1ccc(OC)c(-c2csc(NC(=O)Cc3ccccc3OC)n2)c1,–,"inconclusive [inhibitor, single point]"

# From PubChem BioAssay AID720709 (National Center for Advancing Translational Sciences (NCATS), 2013)
